# According to the supplement of paper PMC4604168 (melanoma cell lines):
# The other results are listed elsewhere or left out. Repeats are few or missing, and single values can be far off.
# Experiments:
# Experiment in all cases: cell count relative to DMSO control; melanoma cells; higher = more viable cells
# Settings in all cases: library dose: standard library concentration; 72 h
# G361 = test system: G361
# IPC-298 = test system: IPC-298
# IST-MEL1 = test system: IST-MEL1
# LB2518-MEL = test system: LB2518-MEL
# LOXIMVI = test system: LOXIMVI
# MEL-HO = test system: MEL-HO
# MZ2-MEL = test system: MZ2-MEL
# MeWo = test system: MeWo
# RPMI7951 = test system: RPMI7951
# RVH-421 = test system: RVH-421
# 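Further: cells treated in 1,536-well plates, then fixed and DAPI-stained, with nuclei counted from automated high-throughput microscope images.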
Structure (SMILES),cell count (G361) [%],cell count (IPC-298) [%],cell count (IST-MEL1) [%],cell count (LB2518-MEL) [%],cell count (LOXIMVI) [%],cell count (MEL-HO) [%],cell count (MZ2-MEL) [%],cell count (MeWo) [%],cell count (RPMI7951) [%],cell count (RVH-421) [%]
"Cc1cn(-c2cc(NC(=O)c3ccc(C)c(Nc4nccc(-c5cccnc5)n4)c3)cc(C(F)(F)F)c2)cn1 [nilotinib] + c1cc(-c2cnn3cc(-c4ccc(OCCN5CCCCC5)cc4)cnc23)ccn1 [Dorsomorphin] (first compound 1 µM, partner dose 2 µM)",46.4,82.6,82.2,57.4,109,72.2,48.8,77.6,84.4,108
"Cc1cc(Nc2cc(N3CCN(C)CC3)nc(/C=C/c3ccccc3)n2)n[nH]1 + Cn1c(Nc2ccc(C(F)(F)F)cc2)nc2cc(Oc3ccnc(-c4ncc(C(F)(F)F)[nH]4)c3)ccc21 [CHIR265] (first compound 0.2 µM, partner dose 0.4 µM)",38.6,49.5,86.8,–,80.8,60.6,–,68,67.8,56.2
"Cc1cc(Nc2cc(N3CCN(C)CC3)nc(/C=C/c3ccccc3)n2)n[nH]1 + CC(=O)c1c(C)c2cnc(Nc3ccc(N4CCNCC4)cn3)nc2n(C2CCCC2)c1=O [palbociclib] (first compound 0.2 µM, partner dose 0.2 µM)",58.9,75.1,76.2,45,88,78.6,60.7,55.2,77.2,162
"Cc1cn(-c2cc(NC(=O)c3ccc(C)c(Nc4nccc(-c5cccnc5)n4)c3)cc(C(F)(F)F)c2)cn1 [nilotinib] + CN(C)S(=O)(=O)c1ccc2c(c1)/C(=C/c1cc3c([nH]1)CCCC3)C(=O)N2 [SU6656] (first compound 1 µM, partner dose 2 µM)",80.3,78.1,90.6,85.1,92.8,85.3,91.6,99.6,61,86.1
"COc1ccc(C2=N[C@@H](c3ccc(Cl)cc3)[C@@H](c3ccc(Cl)cc3)N2C(=O)N2CCNC(=O)C2)c(OC(C)C)c1 [Nutlin-3] + Oc1nc(-c2ccc(C(F)(F)F)cc2)nc2c1CSCC2 [XAV939] (first compound 0.5 µM, partner dose 10 µM)",81.6,92.3,87.4,74,108,79.2,106,99.7,105,96.6
"COc1ccc(C2=N[C@@H](c3ccc(Cl)cc3)[C@@H](c3ccc(Cl)cc3)N2C(=O)N2CCNC(=O)C2)c(OC(C)C)c1 [Nutlin-3] + CN1CCN(c2ccc3nc(-c4c(N)c5c(F)cccc5[nH]c4=O)[nH]c3c2)CC1 [Dovitinib] (first compound 0.5 µM, partner dose 0.5 µM)",74,82.1,103,50.8,104,71.9,51.3,65.2,71.9,97.4
"Cc1cn(-c2cc(NC(=O)c3ccc(C)c(Nc4nccc(-c5cccnc5)n4)c3)cc(C(F)(F)F)c2)cn1 [nilotinib] + COc1ccc(-c2ccc3c(N4CCOCC4)nc(N4C[C@@H](C)O[C@@H](C)C4)nc3n2)cc1CO [KU0063794] (first compound 1 µM, partner dose 0.1 µM)",77,76.6,100,91,109,80.1,98.1,–,76.7,95.5
"CC(C)C[C@H](NC(=O)[C@H](Cc1ccccc1)NC(=O)c1cnccn1)B(O)O [Bortezomib] + Clc1ccc(Nc2nnc(Cc3ccncc3)c3ccccc23)cc1 [vatalanib] (first compound 0.005 µM, partner dose 10 µM)",0.32,4.14,4.3,–,6.01,21.1,–,14.4,0.948,2.37
"Cc1cn(-c2cc(NC(=O)c3ccc(C)c(Nc4nccc(-c5cccnc5)n4)c3)cc(C(F)(F)F)c2)cn1 [nilotinib] + CNC(=O)c1cc(Oc2ccc(NC(=O)Nc3ccc(Cl)c(C(F)(F)F)c3)cc2)ccn1 [sorafenib] (first compound 1 µM, partner dose 2 µM)",75.6,78,92.5,76.7,102,79.2,71.3,74.8,55.7,173
"Cn1c(=O)n(-c2ccc(C(C)(C)C#N)cc2)c2c3cc(-c4cnc5ccccc5c4)ccc3ncc21 + COCC[n+]1c2c(n(Cc3cnccn3)c1C)C(=O)c1ccccc1C2=O [YM155] (first compound 0.02 µM, partner dose 0.002 µM)",48.5,42.5,41.9,22.7,51.7,58.2,21.5,39.2,35.2,68.8
"CC(C)C[C@H](NC(=O)[C@H](Cc1ccccc1)NC(=O)c1cnccn1)B(O)O [Bortezomib] + O=C(O)c1ccc(-c2c[nH]c3ncc(-c4ccccc4)cc23)cc1C1CCCC1 [GSK650394] (first compound 0.005 µM, partner dose 0.8 µM)",1.81,15.8,22,4.39,20.1,39.1,12.5,19.4,11.6,8.18
"COc1ccc(C2=N[C@@H](c3ccc(Cl)cc3)[C@@H](c3ccc(Cl)cc3)N2C(=O)N2CCNC(=O)C2)c(OC(C)C)c1 [Nutlin-3] + CN(C)S(=O)(=O)c1ccc2c(c1)/C(=C/c1cc3c([nH]1)CCCC3)C(=O)N2 [SU6656] (first compound 0.5 µM, partner dose 2 µM)",64.7,78.2,88.4,74.6,80.5,104,125,88.3,78.6,87.4
"Cn1c(=O)n(-c2ccc(C(C)(C)C#N)cc2)c2c3cc(-c4cnc5ccccc5c4)ccc3ncc21 + CN(NC(=O)CC(=O)NN(C)C(=S)c1ccccc1)C(=S)c1ccccc1 [STA4783] (first compound 0.02 µM, partner dose 0.03 µM)",33.4,70.9,21.9,–,43.2,65.5,–,20.8,43.9,49.2
"Cc1cc(Nc2cc(N3CCN(C)CC3)nc(/C=C/c3ccccc3)n2)n[nH]1 + CN(NC(=O)CC(=O)NN(C)C(=S)c1ccccc1)C(=S)c1ccccc1 [STA4783] (first compound 0.2 µM, partner dose 0.03 µM)",45.3,79.5,22.1,–,75,81,–,12.1,78.7,46.2
"Cc1cn(-c2cc(NC(=O)c3ccc(C)c(Nc4nccc(-c5cccnc5)n4)c3)cc(C(F)(F)F)c2)cn1 [nilotinib] + CN(c1ncccc1CNc1nc(Nc2ccc3c(c2)CC(=O)N3)ncc1C(F)(F)F)S(C)(=O)=O [PF562271] (first compound 1 µM, partner dose 0.4 µM)",67.8,98.7,85.6,67.7,112,90.1,–,87.3,59.6,74.4
"Cn1c(=O)n(-c2ccc(C(C)(C)C#N)cc2)c2c3cc(-c4cnc5ccccc5c4)ccc3ncc21 + COc1ccc(-c2ccc3c(N4CCOCC4)nc(N4C[C@@H](C)O[C@@H](C)C4)nc3n2)cc1CO [KU0063794] (first compound 0.02 µM, partner dose 0.1 µM)",68.9,64.4,93.1,–,75.8,69.5,–,62.8,67.3,77.1
"CC(C)C[C@H](NC(=O)[C@H](Cc1ccccc1)NC(=O)c1cnccn1)B(O)O [Bortezomib] + CCN(CC)CCCCNc1ncc2cc(-c3cc(OC)cc(OC)c3)c(NC(=O)NC(C)(C)C)nc2n1 [PD173074] (first compound 0.005 µM, partner dose 0.5 µM)",0.762,21.5,16.5,–,41.7,48.1,–,10.2,10.1,30
"CC(C)C[C@H](NC(=O)[C@H](Cc1ccccc1)NC(=O)c1cnccn1)B(O)O [Bortezomib] + O=C(Nc1cccc(Cl)c1)Nc1ncc(CCNc2ncnc3ccsc23)s1 [SNS314] (first compound 0.005 µM, partner dose 0.004 µM)",0.565,14.8,7.88,4.85,16.5,30.6,3.28,14.8,6.43,4.32
"CC(C)C[C@H](NC(=O)[C@H](Cc1ccccc1)NC(=O)c1cnccn1)B(O)O [Bortezomib] + CN(NC(=O)CC(=O)NN(C)C(=S)c1ccccc1)C(=S)c1ccccc1 [STA4783] (first compound 0.005 µM, partner dose 0.03 µM)",2.77,14.5,14.5,4.68,24.3,19.1,8.42,16.4,7.32,2.69
